Results from the supplement of paper PMC11417369.
± gives the standard deviation of the averaged measurements. The list shows a part of the results.

system: PfAP2-I AP2 domain 3 (GST-tagged); test: gcPBM binding intensity (ln(normalized median fluorescence intensity)); higher = stronger DNA binding
In short: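 For binding intensity, the highest Masliner-normalised natural-log median intensity across replicate spots of either probe orientation was taken. Protein bound to the array was stained with Alexa488 anti-GST antibody and scanned at 488 nm. The protein, GST-tagged P. falciparum DNA-binding domains from E. coli at about 25 μg on average, had been applied for 1 h to an Agilent 4 × 180k array of primer-extended double-stranded 36-bp intergenic genomic probes and negative controls.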

| Sequence | gcPBM binding intensity (ln) |
| --- | --- |
| TATAAGAAAAATAACACACACATAAACATAAATACA [CACACA_site5536] | 7.95 ± 0.58 |
| AAAAAAAAAAAAAAATGTACATAAAAATGATATAAT [XGTACX_site4096] | 8.24 ± 0.28 |
| TATATATAGAAACACACACACATATATATATATATA [CACACA_site773] | 9.36 ± 0.29 |
| GTATATATATATAAAAGTACATGTTATGAAAAAAAA [XGTACX_site5410] | 8.18 ± 0.42 |
| TTTTTTCTCAAAAAAAAAACCTATGGTTATTAAGAT [XGTACX_negctrl_site534] | 7.35 ± 0.49 |
| ATTAAGTATATTTCTGCACACAAAAAAAAAAACCAA [CACACA_site9342] | 8.95 ± 0.13 |
| ATTTATTTGTTTATTTGTTTATTTGTTTATTTGTTT [CACACA_negctrl_site1386] | 7.68 ± 0.59 |
| AATTTAATATAATGCACACATAAAAAAAAATTCAAA [CACACA_site2062] | 11 ± 0.79 |
| ATGAAAACCATGACGGGTACTCATTTATTATTTTAT [XGTACX_site6724] | 7.64 ± 0.59 |
| TTAAGAATCTATACTAGTACATATATGTATACAAGC [XGTACX_site8025] | 7.84 ± 0.56 |
| TATATATATATGTGTAGTACAACAAATATGAAAAAT [XGTACX_site4059] | 9.365 ± 0.092 |
| ATTGTGTTAATAAAATGTACATTTTCTCTACTTTAA [XGTACX_site1199] | 8.02 ± 0.52 |
| TGTAGAACAAAAAATTGTACATATTTGTAAAAAAAA [XGTACX_site3850] | 7.71 ± 0.73 |
| CCTAATTTTATTAGGGTGCATTTTTAGTTAAATATA | 10.3 ± 0.49 |
| ACAATATATAAAATATGTACATAATATATATAATGA [XGTACX_site8731] | 7.75 ± 0.2 |
| TAAGTTATATGTACTACACACGTACACAAAATAAGA [CACACA_site9237] | 8.17 ± 0.4 |
| ATCCACAAATTAACAAGTACATATATATATATATAT [XGTACX_site1267] | 9.29 ± 0.47 |
| TGATGAAAATTTTTCTGTACAAAAAGTATGAAGGTA [XGTACX_site8901] | 8.22 ± 0.64 |
| TTGGATTTTTCCTATGAACACACGGGGTTACAATTA [CACACA_site449] | 7.74 ± 0.52 |
| TCCAATAATTTATAAAAAAAAAAAGGGAAAATGTAT [TGCATGCA_negctrl_site492] | 7.67 ± 0.72 |
| ATATATTTATTATTAACATGCAATCATTATATATAA [TGCATGCA_site404] | 7.58 ± 0.49 |
| TTAATATGAGAATAATGTACAAGAAAATATTACATA [XGTACX_site6609] | 7.7 ± 0.32 |
| AAAATAATAAAAAACTGTACGAATTAAAAATTAACA [XGTACX_site8454] | 7.46 ± 0.46 |

| Sequence | gcPBM binding intensity (ln) |
| --- | --- |
| TACAACTTAATATGTACACACAAATATATATATATA [CACACA_site5138] | 9.19 ± 0.29 |
| GATACCTATAGACACACACACATACCTATATACATA [CACACA_site7586] | 8.15 ± 0.49 |
| ATTCATCCAATAATGTGAATTATCATGATAAACTTA [TGCATGCA_negctrl_site406] | 7.41 ± 0.61 |
| TTTATAAATAAACACACACACATGTGAACATAAAAA [CACACA_site5110] | 7.89 ± 0.58 |
| GAAATACATTTTAAAAAATAAGTAATTATAAAATAA [TGCATGCA_negctrl_site303] | 7.3 ± 0.59 |
| ATTATTCTATATGAAACATGCATACATTTGTATTTT [TGCATGCA_site823] | 7.79 ± 0.47 |
| ATATATGTAAATGAATGTACATTATTTTATATATTA [XGTACX_site8460] | 7.59 ± 0.26 |
| ATCAAAATTGTCATTACACACCTTTATTTTTAGAAT [CACACA_site1813] | 7.95 ± 0.66 |
| ATTATATATATCAGGTGTACGTAAAAAAAATGGACG [XGTACX_site1028] | 8.43 ± 0.52 |
| TTTTTTTTTTTTTTTACACACTCCAATAAAAAAGAA [CACACA_site2119] | 8.27 ± 0.73 |
| GAGGTCTTTTTTAATGTGCACATATATATATATATA | 10.1 ± 0.13 |
| TTTTTTTATTAATGTAGTACAATATAATGTTATATT [XGTACX_site2295] | 7.97 ± 0.3 |
| TAATTTATAAATATAATATTTATGTATATGATGTTT [CACACA_negctrl_site464] | 7.59 ± 0.57 |
| TATAAAAATATATTTACACACTATAAATATCGAAAG [CACACA_site6896] | 7.71 ± 0.38 |
| TTCAAGATTTATTATACACACATATTAAAATATATA [CACACA_site4479] | 7.7 ± 0.35 |
| AATCTATCAAAGTGTACATGCAATAAAAAAAAAAAA [TGCATGCA_site103] | 8.34 ± 0.6 |
| AAAAAATTATTATGAACACACATTTATTATATTCAT [CACACA_site1566] | 7.39 ± 0.57 |
| AAACATTTTCATTTGACACACATCATATATTTATAT [CACACA_site1794] | 7.97 ± 0.71 |
| TTAATGTACAGACACCCACACACAAACAAATATATA [CACACA_site8888] | 8.07 ± 0.28 |
| AAAAGAAAAAAAAGTACACACATGTATATTAAGCGT [CACACA_site5402] | 8.21 ± 0.4 |
| GCGTGCGTGTACTTAACACACATAATATGTATTTAT [CACACA_site1247] | 8.53 ± 0.3 |
| TTTTTTTTTCCCCCATGTACATAAATAAGTATATCT [XGTACX_site6965] | 9.21 ± 0.18 |
| CTTTCATTTCTATCTACACACATATTTTTTCCAAGT [CACACA_site2972] | 8.18 ± 0.56 |

| Sequence | gcPBM binding intensity (ln) |
| --- | --- |
| ATATGTACTATACGCACACACACTCACATATATATA [CACACA_site3239] | 8.85 ± 0.34 |
| AATTATATGAAATAAACACACATATGCAATATTGCA [CACACA_site6988] | 8.28 ± 0.61 |
| TATATATATAAATACAGTACATATATAATATTTTGA [XGTACX_site637] | 8.61 ± 0.51 |
| TAACTTAATTTTAATGCACACAATTTATATATATAT [CACACA_site6022] | 11.2 ± 0.52 |
| AAAAATATATATATATATATATATATATTATTTTTT [TGCATGCA_negctrl_site378] | 7.92 ± 0.35 |
| CTTTCCATATATGATAGTACACGATAAAAAAAAAAA [XGTACX_site5772] | 8.23 ± 0.65 |
| TTTAAAAAAAATTCATATTATATATATATATATTAT [CACACA_negctrl_site1733] | 7.54 ± 0.49 |
| AAAGAAATAAGGTGCACACATATACATATATATATA [CACACA_site429] | 10.3 ± 0.29 |
| TAATAATAGTACTGACATCAAAATCTTATTAAAAAT [GTGCAC_negctrl_site308] | 7.58 ± 0.4 |
| TTCTTTTTTATTTTTCAACACACATAATAAATTTCT [CACACA_site8253] | 8.26 ± 0.46 |
| TACCCTTGCATGTAGGTGCAATTTTTTTTTTTTTTT | 10.6 ± 0.35 |
| TTCGTAATTTATATCACACACATATATATATAATAA [CACACA_site3115] | 8.12 ± 0.5 |
| CAACTTTATACATATAGTACAAGTTATATTTTATTA [XGTACX_site6651] | 7.46 ± 0.39 |
| AACGATTTACATCACTGTACTAATGATATACCTCAT [XGTACX_site7463] | 7.88 ± 0.69 |
| TATATATTTTCTTTTGCACACTGTTTTCCTTTTTTT [CACACA_site2739] | 9.51 ± 0.38 |
| TATATATATATATATTGTACTATATAGTATCTTTTT [XGTACX_site1646] | 9.32 ± 0.3 |
| AAGGTATACACTGCTTTATCAAGTTTAACTCTTTTT [XGTACX_negctrl_site118] | 7.77 ± 0.71 |
| ACATCATAAAATTTATGTACACATTTTTAATTATAC [XGTACX_site7759] | 8.19 ± 0.19 |
| ATCATTTTTATGTACACACACATATACGTTGAATAT [CACACA_site1865] | 8.38 ± 0.18 |
| AAGATATGAGGGAATACACACATATTTATATTTATA [CACACA_site6846] | 7.42 ± 0.61 |
| TATAAAATTTACGTGTGTACATATTTAATAATTTTT [XGTACX_site5001] | 7.7 ± 0.39 |
| AAATTTGAAATGCATGAACACACACCGCTATAAATG [CACACA_site8230] | 8.22 ± 0.69 |
| TAAATATAGAAACACACACACATTAATACATATATT [CACACA_site3489] | 7.74 ± 0.65 |

| Sequence | gcPBM binding intensity (ln) |
| --- | --- |
| TAATTTTTTATATATTGTACAAATAATATATGATGT [XGTACX_site268] | 7.92 ± 0.22 |
| TTTATGTATTTAATATGTACATATAGTTGTTAATAA [XGTACX_site1938] | 7.8 ± 0.23 |
| GCTATATATTAATGTTGTACTTTATGTTCATATTGT [XGTACX_site3619] | 7.87 ± 0.57 |
| AAAATGTACGCATATACACACACATAAATAGATACG [CACACA_site9124] | 8 ± 0.58 |
| ATATATATATAATTATATAAAATATATCATATGTTA [XGTACX_negctrl_site47] | 8.76 ± 0.16 |
| AAGAAATAAATACATACACACATATATAAATAAATA [CACACA_site7559] | 7.64 ± 0.56 |
| AAGAAATAATTATTATGTACTTAAAAAAATTAAAAT [XGTACX_site7423] | 7.78 ± 0.45 |
| GCAAGTCCATGAACGGTGCAGGAATTAACAAAAATA | 9.06 ± 0.49 |
| AATAAAAATAAAAGCACACATAAATATATATATATT [CACACA_site1441] | 8.575 ± 0.049 |
| TCATGGCCATTTTCAGTGCATATGTGTATTTAATAT [GTGCAC_site9529] | 9.1 ± 0.2 |
| AAAAAAATACATACGTGTACCCACATATATGTATCT [XGTACX_site5319] | 7.96 ± 0.69 |
| GTTTCTACTTATATAACAGGACACGTGTGAATAATT [TGCATGCA_negctrl_site430] | 8.11 ± 0.71 |
| AAAAAAAAAAAACATTGTACGCACATTTTATATGTC [XGTACX_site6974] | 8.39 ± 0.28 |
| TTGAAGGTGGCAATGTGTACATAGAATAACCAGTGC [XGTACX_site4738] | 8.17 ± 0.54 |
| ACAATTGCATCTATCACACATACATACATACATACA [CACACA_site5063] | 8.91 ± 0.37 |
| TTACTATAAAATGTCACACATTCTGTTTCCTTACTT [CACACA_site5714] | 7.64 ± 0.61 |
| TCAACAAAATTGAAGGAACACACATACATATATATA [CACACA_site7940] | 8.14 ± 1 |
| TATAAATATCTGTATGCACACATTTTTTTTGGAAAA [CACACA_site4734] | 8.88 ± 0.23 |
| ATTTTTTCTCATAAAAACGTGAACGTTTATTTTACA [CACACA_negctrl_site1041] | 7.93 ± 0.59 |
| ATTATAAAAGAATTTTTTTTTATTTCATTAAAATAT [CACACA_negctrl_site1137] | 7.09 ± 0.47 |
